PubChem BioAssay (NCI)
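Cells were grown in 96-well plates and exposed to each compound for 48 hours at five concentrations; endpoints were interpolated linearly between bracketing concentrations, or set to the highest concentration if not reached. Definition used: TGI = concentration required for complete inhibition of growth.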

system: NCI-H322M lung; experiment: NCI-60 cell line screen, 48 h

Row | SMILES | TGI [µM]
1 | C#CC1NC(=O)C1N(CC)CC (stereo not drawn) | > 100
2 | CN(C)c1ccc(/C=C/c2cc(-c3ccccc3)[n+](C)n2-c2ccccc2)cc1 | 14.6
3 | CC(C)[C@@H](C)[C@@]1(C)C[C@@H]1[C@@H](C)[C@H]1CC[C@@H]([C@@H]2CC=C3C[C@@H](O)CC[C@]3(C)C2=O)[C@]1(C)CCO | 25.6
4 | CN(C(=O)c1ccco1)C(=S)N1CCN(c2ccccn2)CC1 | > 100
5 | O=C1c2ccccc2C(=O)N1CC(CN1C(=O)c2ccccc2C1=O)(C(=O)OCc1ccccc1)C(=O)OCc1ccccc1 | > 100
6 | CCOC(=O)c1cccnc1C(OC(C)=O)OC(C)=O | > 100
7 | O=c1ccnc2ccc3n[nH][nH]c3c12 | > 100
8 | COc1ccc(CCc2cc(OC)c(O)c(OC)c2)cc1 | > 100
